Among all 150,000 compounds or so, about 540 (0.36%) showed an effect of 50% or more. Some of the results follow.

The subject of this assay is Plasmodium falciparum. The assay is described as follows: Primary screen in NF54 nanoGlo assay, in single point, at 2uM, 72h; a lower Z score goes with more inhibition. The following applies: timepoint 72 hour. Format: functional, Erythrocyte.
Take `Cc1ccccc1[C@H](Cn1cnc2cccnc2c1=O)N(C)C`: the % Inhibition (commonly the drop in the measured response relative to a control, in per cent) is reported as -9% and the Z score is 1.55.
In the same order, the values of `Cc1cc(NCc2cccnc2N(C)CCc2ccccn2)nc2ccccc12` are 1% and -0.13.
Regarding `CC1(C#N)CN(C(=O)Nc2ccc(C3CCC3)cn2)C1`, the “% Inhibition” value is -6% and the Z score is 0.57.
For `Cc1[nH]c2nc(C(=O)N3CCCC3)nn2c(=O)c1Cc1ccccc1`, in that order: 5% and -0.62.
For `Cn1cc(C(=O)NC2C3CC2N(c2nccc(Oc4ccccc4)n2)C3)nn1` (stereo unspecified), in that order: -8% and 1.25.
For the molecule `CC1CCN(CCNc2ncnc3onc(-c4cc(F)cc(F)c4)c23)CC1`, the “% Inhibition” value is -6% and the Z score amounted to 0.91.
With `COCc1cccc(CNc2ncnc3onc(C)c23)c1`, the “% Inhibition” value came to 4% and the Z score was -0.44.
`Cc1nccn1CCN(C)Cc1ccc(-n2ccnc2)cc1`: the “% Inhibition” value was -3% and the Z score turned out to be 0.51.
For `COc1ccc(C)cc1NC(=O)c1cn(-c2ccc(-c3noc(C4CC4)n3)cc2)nc1C`, in that order: 4% and -0.8.
For `COc1cc2c(cc1OC)CN(C(=O)c1ccc(CN3C(=O)CNC3=O)cc1)CC2`, in that order: -6% and 0.66.
For `Cn1c(=O)[nH]cc(C(=O)Nc2ccc3c(c2)OCCO3)c1=O`, in that order: 4% and -0.54.
As for `C[C@@H](C(=O)NCc1cccnc1N1CCOCC1)n1ccnc1`, the “% Inhibition” value is -5% and the Z score worked out at 0.77.
Regarding `O=C(CCCc1c[nH]c2ccccc12)N1CCC[C@H]1c1ccc2c(c1)OCCCO2`, the “% Inhibition” value is listed as -2% and the Z score turned out to be 0.3.
For `Cc1ccccc1NC(=O)c1ncn2c1C(=O)N(C1CC1)[C@](C)(C(=O)NCc1ccc(F)cc1)C2`, in that order: -8% and 0.83.
In the case of `Cn1cc(-c2ccc3c(c2)OCC[C@@H]2CC[C@H](O)[C@@H](CNC(=O)[C@@H]4CN(Cc5cccc(Cl)c5)CCN4C3=O)O2)cn1`, the “% Inhibition” value is on record as 10% and the Z score is on record as -1.88.
As for `Cc1ccc(C(=O)Cn2cnc3c2c(=O)n(CCC(C)C)c(=O)n3-c2ccc(F)cc2)c(C)c1`, the “% Inhibition” value was -11% and the Z score amounted to 1.7.
Regarding `Cc1cc(=O)[nH]c(-n2nc(C3CC3)cc2NC(=O)C(C)(C)Oc2ccc(Cl)cc2)n1`, the “% Inhibition” value was 84% and the Z score is -15.44.
In the same order, the values of `CC1CN(C)CCN1C(=O)C(C)n1cncn1` (stereo unspecified) are 0% and 0.06.
Regarding `COC[C@H]1CCCN1S(=O)(=O)NCc1nc2ccccc2o1`, the “% Inhibition” value is recorded as -15% and the Z score was 2.05.
With `C=CCN(C(=O)CCN1CCCCO1)C1CCCC1`, the “% Inhibition” value is 15% and the Z score was -1.95.
On to `COc1ncccc1C(=O)N1CCC[C@]1(C)Cc1cccc(F)c1`, for which the “% Inhibition” value is -2% and the Z score worked out at 0.25.
In the same order, the values of `Cc1cc(C(=O)NCCn2c(C)cnc2C2CC2)n(C)n1` are -11% and 1.42.
For `O=C(Nc1cccc(C#Cc2ccccn2)c1)[C@H]1CCS(=O)(=O)C1`, in that order: 5% and -0.69.
In the same order, the values of `CN(C[C@H]1CCCOC1)C(=O)Nc1csnc1-c1ccccc1` are -10% and 1.94.
Turning to `COc1cccc(CN2CCn3nnc(-c4nc(-c5ccccc5)no4)c3C2=O)c1`, the “% Inhibition” value is reported as -5% and the Z score came out at 0.53.
Take `CCC(C)C(=O)Nc1nc2c(s1)C(=O)CC(C(=O)N1CCN(c3cccc(Cl)c3)CC1)C2` (stereo unspecified): the “% Inhibition” value is -7% and the Z score is on record as 1.06.
In the same order, the values of `CS(=O)(=O)NC(=O)[C@@]12CCC[C@@H]1CN(Cc1ccccc1)C2` are -10% and 1.28.
With `Cc1cnc(COc2cccc3c2[C@@H](O)CC(C)(C)O3)s1`, the “% Inhibition” value is listed as -12% and the Z score is 1.91.
As for `Cc1ccnc(Oc2cccc(C(=O)Nc3ccccc3)c2)n1`, the “% Inhibition” value is given as -36% and the Z score was 3.16.
For `CC(=O)C(Nc1cc(C(F)(F)F)ccc1Cl)C(C)=O`, in that order: -10% and 1.32.
For `Cc1cc(C(=O)NC2CCC(F)C2)c(C)o1` (stereo unspecified), in that order: -8% and 1.62.
Turning to `O=C(C1CCN(Cc2cccc3cccnc23)CC1)N1CCCC1`, the “% Inhibition” value is on record as -5% and the Z score stood at 0.69.
For `C[C@@H](Oc1ccc(Cl)cc1Cl)C(=O)N[C@H]1CCC[C@H]1C(=O)O`, in that order: -1% and 0.08.
Regarding `COCCN(CC(N)=O)Cc1csc2c(F)cccc12`, the “% Inhibition” value was 6% and the Z score is given as -0.86.
With `C#Cc1cccc(N(C)C(=O)CS(=O)(=O)N(CC)CC)c1`, the “% Inhibition” value is listed as -8% and the Z score came out at 0.9.
Turning to `Cc1ccc(S(=O)(=O)c2ccc(C(=O)NCc3ccc4c(c3)OCO4)s2)cc1`, the “% Inhibition” value was -19% and the Z score is recorded as 1.77.
In the same order, the values of `COC1CCC(N[C@H]2CCCN(C(=O)OC(C)(C)C)C2)CC1` (stereo partly specified) are -15% and 1.5.
In the same order, the values of `O=C(c1ccccn1)N1C[C@H](c2nc(-c3ccccc3)no2)C2(CCOCC2)C1` are 8% and -1.58.
For `O=C(c1ccc(F)c(Cl)c1)N1CCCN(c2cc(-c3ccccc3)n[nH]2)CC1`, in that order: -17% and 1.72.
Regarding `CC[C@]1(N2CCN(S(=O)(=O)c3ccc4c(c3)CCCC4)CC2)CCN(C(=O)NC)C1`, the “% Inhibition” value was -12% and the Z score came out at 1.2.
For `O=C(Cc1ccc(F)cc1)N1CCc2ncncc2C1`, in that order: -9% and 1.63.
For `Cc1ccoc1C(=O)N[C@@H](C)c1cccc(N2CCCC2)c1`, in that order: -3% and 0.38.
For `O=C(Nc1cccc(C(F)(F)F)c1)N1CCC(Oc2ncccc2Cl)CC1`, in that order: 1% and -0.22.
For `CC(=O)N1N=C(c2ccccc2)OC12CCCC2`, the “% Inhibition” value is -4% and the Z score was determined as 0.67.
Consider `Cc1ncc(Cc2ccccc2)c(C2CCNCC2)n1`, for which the “% Inhibition” value is reported as -12% and the Z score worked out at 2.03.
As for `Cc1nc2n(c1C(=O)N(C)C)CCN(C(=O)Nc1ccc3cccnc3c1)C2`, the “% Inhibition” value is -5% and the Z score was determined as 0.6.
For `CCc1nc(C)ccc1OCC(=O)N1CCC2(CC1)C(=O)NCCN2C`, in that order: 3% and -0.29.
In the same order, the values of `CN(Cc1cc(C2CC2)on1)C(=O)CCCOc1ccccc1` are -15% and 2.64.
Take `CC(C)Cc1cc(C(=O)NCc2csc(N)n2)nc(=O)[nH]1`: the “% Inhibition” value worked out at 17% and the Z score was -2.16.
In the same order, the values of `CCOCC(=O)NCc1ccc([C@H](O)c2ccccc2)s1` are -13% and 1.69.
With `CCOc1cccc([C@@H]2CC(c3ccc(C)cc3)=NC3(CCN(CC)CC3)N2)c1O`, the “% Inhibition” value is given as -17% and the Z score is on record as 1.93.
For `C=CCn1ccnc1C(=O)NCCc1cscn1`, in that order: -10% and 1.3.
With `CC1(C)CCc2nnc(C(=O)Nc3ccccn3)n2C1`, the “% Inhibition” value was determined as 10% and the Z score is recorded as -1.3.

Values taken from ChEMBL document CHEMBL4888484, “Replenishing the malaria drug discovery pipeline: Screening and hit evaluation of the MMV Hit Generation Library 1 (HGL1) against asexual blood stage Plasmodium falciparum ,using a nano luciferase reporter read-out” (2022).
